The assay deals with NCI-H322M lung. In words: NCI tumour cell line growth inhibition, 48 h.

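Dose response: 5 concentrations. Exposure: 48 h. Format: 96-well plates. Endpoint: linear interpolation; highest concentration if not reached. GI50 = concentration required for 50% inhibition of growth. TGI: concentration producing complete growth inhibition.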

Take `CCCn1cnc2c(c1=N)C(c1ccc(Cl)cc1)c1sc3c(C)cccc3c1O2` (centres undefined): the GI50 was 0.698 µM and the TGI was 27.8 µM.

Regarding `OC1CCN(CCCOc2c3ccc(Cl)cc3nc3c2oc2ccccc23)CC1`, the GI50 is 1.29 µM and the TGI amounted to 6.31 µM.

For the origin of these results see PubChem BioAssay (NCI).
